This note sets out measurements from PubChem BioAssay AID1508642 (National Center for Advancing Translational Sciences (NCATS), 2021).

Out of some 43,000 compounds screened, about 200 (0.47%) were called active. Another 12% or so got no clear call; they are omitted. The call rests on the fitted dose curve; in most records, active means well fitted cell-killing curve with a large enough effect; inconclusive means small, poorly fitted or top-dose-only effect, or effect the other way; inactive means flat fitted curve, though single readings scatter. Some of the results follow.
On the % scale 0 is the no-effect control and ±100 the full control effect.

The nature of the assay: Cell viability qHTS assay in S16 Pmp22-F2sN cells. Further: nearly all actives have a fitted effect of over 65% in size. Conditions: S16 Pmp22-F2sN Schwann cells viability, CellTiter-Glo, 24 h; series mostly up to 57.5 µM; activity change, negative = cytotoxicity: at the top concentration. The gist of the method:
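Viability was measured by CellTiter-Glo luminescence (15 min, room temperature). This followed 24 h at 37 °C of compound exposure (23 nL pin transfer) in S16 Pmp22-F2sN Schwann cells, 500-1,000 per well.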
(In general: Quantitative high-throughput screening tests each substance at several concentrations.)
For the molecule `CCOC(=O)c1ccc(NC(=O)C(CC)Sc2nnc3c4ccccc4n(C)c3n2)cc1` (stereo not drawn), the “activity change, negative = cytotoxicity” value was inactive: 4.67%.

`CCC1=Nc2cc(C(=O)NCc3ccccc3Cl)ccc2Sc2ccc(C)cc21`: the “activity change, negative = cytotoxicity” value is inactive: -13.9%.

`Cc1cc(C)c(NC(=O)Cn2c(=O)n(Cc3ccc4c(c3)OCO4)c(=O)c3ccccc32)c(C)c1`: the “activity change, negative = cytotoxicity” value is inactive: -6.14%.

For `CCOC(=O)c1c(C)[nH]c(CCC(=O)Nc2c(Cl)cc(OC)cc2OC)c1C`, the “activity change, negative = cytotoxicity” value was inactive: -1.4%.

As to `N#Cc1cccc(Nc2ncnc3c2cnn3-c2cccc(Cl)c2)c1`, the “activity change, negative = cytotoxicity” value was inactive: 22.5%.

In the case of `O=C(CSc1nncn2c1cc1occc12)Nc1ccccc1C(F)(F)F`, the “activity change, negative = cytotoxicity” value is inactive: 1.65%.

For `CCc1ccccc1NC(=O)CN(c1cccc(C)c1C)S(C)(=O)=O`, the “activity change, negative = cytotoxicity” value was inactive: 8.65%.

Turning to `CCOC(=O)C1CCCN(S(=O)(=O)c2ccc3c(c2)CCN3C(=O)CC)C1` (stereo not drawn), the “activity change, negative = cytotoxicity” value was inactive: -9.23%.

For the molecule `COc1ccc(CNC(=O)Cn2c(=O)nc(-c3ccccc3F)c3cc(Cl)ccc32)cc1OC`, the “activity change, negative = cytotoxicity” value was inactive: -0.353%.

As for `CCCc1nc2nc(C)c(NS(=O)(=O)c3ccc(F)cc3)c(=O)n2[nH]1`, the “activity change, negative = cytotoxicity” value was inactive: -1.74%.

As to `CCc1ccc(S(=O)(=O)c2cnc3ccc(OC)cc3c2N2CCCC(C)C2)cc1` (stereo not drawn), the “activity change, negative = cytotoxicity” value was inactive: -15.3%.

As to `Cc1cc(C(=O)N2CCN(c3ccc(F)cc3)CC2)c2c(C)nn(-c3cccc(Cl)c3C)c2n1`, the “activity change, negative = cytotoxicity” value was inactive: 3.91%.

Take `O=[N+]([O-])c1ccc(S(=O)(=O)NCc2nc3cccnc3n2Cc2ccccc2Cl)cc1`: the “activity change, negative = cytotoxicity” value was inactive: -1.09%.

As for `Cc1ccc(C)c(OCCn2cc(C(=O)c3cccs3)c3ccccc32)c1`, the “activity change, negative = cytotoxicity” value is inactive: 10.7%.

Consider `Cc1c(C(=O)OCC2CCCCC2)[nH]c2c1C(=O)CC(c1ccc(F)cc1)C2` (stereo not drawn), for which the “activity change, negative = cytotoxicity” value is inactive: -0.182%.

In the case of `COC(=O)c1cc(NC(=O)C2CCCN(S(=O)(=O)c3c(C)n[nH]c3C)C2)cc(C(=O)OC)c1` (stereo not drawn), the “activity change, negative = cytotoxicity” value is inactive: 0.434%.

On to `COc1ccc(C)cc1NC(=O)Cn1c(=O)nc(-c2ccccc2F)c2cc(Cl)ccc21`, for which the “activity change, negative = cytotoxicity” value is inactive: -8.37%.

Turning to `O=c1nc2c(-c3ccc(F)cc3Cl)n[nH]n2c2ccccc12`, the “activity change, negative = cytotoxicity” value was inactive: -4.13%.

As for `COCc1cc(C)nc2sc(C(=O)Nc3ccc(OC(F)(F)F)cc3)c(N)c12`, the “activity change, negative = cytotoxicity” value was inactive: -20.6%.

With `Cc1cccc(Nc2c(-c3cccs3)nc3nc(C)cc(C)n23)c1`, the “activity change, negative = cytotoxicity” value was inactive: -12.9%.

Consider `CCc1ccc(CNC(=O)c2cc3c(=O)n(CC)c4ccccc4c3s2)cc1`, for which the “activity change, negative = cytotoxicity” value is inactive: 12.6%.

As to `O=C(NC(=O)c1ccccc1)Nc1ccc(-n2nc(C(F)(F)F)cc2C(F)(F)F)cc1`, the “activity change, negative = cytotoxicity” value is inactive: -0.984%.

Turning to `CC1CCC(NC(=O)c2ccc3c(c2)N(Cc2ccccc2)C(=O)c2ccccc2S3(=O)=O)CC1` (stereo not drawn), the “activity change, negative = cytotoxicity” value is inactive: -1.68%.

For `COc1ccccc1CNC(=O)CCc1c(C)nc2c(c(C)nn2-c2ccc(C)c(C)c2)c1C`, the “activity change, negative = cytotoxicity” value was inactive: 4.05%.

As for `CC(C)(C)OC(=O)N1CCC(c2c(C(=O)NCc3ccccc3)cnn2-c2ccccc2)CC1`, the “activity change, negative = cytotoxicity” value is inactive: -2.87%.

As for `CCCCn1c(=N)c(S(=O)(=O)c2ccc(Cl)cc2)cc2c(=O)n3cccc(C)c3nc21`, the “activity change, negative = cytotoxicity” value is inactive: 20.9%.

As for `CCOC(=O)CNc1nc2ccccc2n2c(C)nnc12`, the “activity change, negative = cytotoxicity” value was inactive: 1.22%.

For the molecule `O=C(c1ccc2c(c1)CCN2S(=O)(=O)c1ccccc1)N1CCN(c2cccc(Cl)c2)CC1`, the “activity change, negative = cytotoxicity” value is inactive: -5.64%.

`CCc1ccc(NC(=O)CSc2nc3c(sc4ccccc43)c(=O)n2CCCOC)cc1`: the “activity change, negative = cytotoxicity” value was inactive: 21.3%.

`Cc1ccc(CNC(=O)c2cnc(N3CCCCC3)c3ccccc23)cc1`: the “activity change, negative = cytotoxicity” value is inactive: 3.11%.

Turning to `COc1ccc(OC)c(NC(=O)Cn2c(=O)n(CC3CCCO3)c(=O)c3cc(OC)c(OC)cc32)c1` (stereo not drawn), the “activity change, negative = cytotoxicity” value is inactive: 16.1%.

For `CCOc1ccccc1CNC(=O)CN1C(=O)CSc2ccc(S(=O)(=O)N3CCOCC3)cc21`, the “activity change, negative = cytotoxicity” value is inactive: 13.5%.

For `COc1ccc2cc(-c3nc(Cl)c4c5c(sc4n3)CCCC5)c(=O)oc2c1`, the “activity change, negative = cytotoxicity” value is inactive: -2.66%.

Turning to `COc1cccc(CNc2nccn(-c3cc(C)cc(C)c3)c2=O)c1`, the “activity change, negative = cytotoxicity” value is inactive: 1.72%.

For `CN(C)c1ccc(-c2nc3cnccn3c2Nc2cccc(C(F)(F)F)c2)cc1`, the “activity change, negative = cytotoxicity” value is inactive: -0.0078%.

For the molecule `COCCn1c(CCC(=O)Nc2ccc(C)c(Cl)c2)nc2cccnc21`, the “activity change, negative = cytotoxicity” value was inactive: -0.467%.

As for `Clc1ccc2nc(NCc3ccccc3)c3nncn3c2c1`, the “activity change, negative = cytotoxicity” value is inactive: 11.2%.

For `CCSc1ncc(Cl)c(C(=O)Nc2ccc(S(=O)(=O)N3CCC(C)CC3)cc2)n1`, the “activity change, negative = cytotoxicity” value is inactive: -15.6%.

Regarding `CCCCN(CCCNC(=O)c1ccc(Sc2ccc(Cl)cc2)c(NC(C)=O)c1)c1ccccc1`, the “activity change, negative = cytotoxicity” value was inactive: -23%.

In the case of `Cc1cc2c(cc1S(=O)(=O)CCC(=O)N1CCCC(C)C1)OCC(=O)N2` (stereo not drawn), the “activity change, negative = cytotoxicity” value was inactive: -2.08%.

Consider `Cc1ccc(-n2ncc(C(=O)NCCN3CCOCC3)c2C2CCN(C(=O)OC(C)(C)C)CC2)c(C)c1`, for which the “activity change, negative = cytotoxicity” value is inactive: -1.8%.

On to `Fc1ccccc1-n1ncc2c1ncn1nc(-c3ccccc3Cl)nc21`, for which the “activity change, negative = cytotoxicity” value is inactive: 15.7%.

For `Cc1cccc(CNC(=O)C(=O)Nc2ccccc2C)c1`, the “activity change, negative = cytotoxicity” value was inactive: 8.26%.

With `COc1ccccc1CNC(=O)CCC1N=C2c3ccccc3N=C(SCC(N)=O)N2C1=O` (stereo not drawn), the “activity change, negative = cytotoxicity” value was inactive: -20.9%.

`Cc1ccc(CNC(=O)c2ccc(CSCc3ccccc3Cl)o2)cc1`: the “activity change, negative = cytotoxicity” value is inactive: -3.13%.

Regarding `CC(=O)c1cccc(NC(=O)C2=CC(c3ccc4c(c3)OCO4)=NS(=O)(=O)N2C)c1`, the “activity change, negative = cytotoxicity” value was inactive: 1.34%.

For the molecule `Cc1ccc(NC(=O)c2c(NC(=O)Cc3ccccc3)sc3c2CCC3)cc1`, the “activity change, negative = cytotoxicity” value is inactive: 5%.

With `Cc1ccc(S(=O)(=O)NCC(c2ccc(N(C)C)cc2)N2CCc3ccccc32)cc1C` (stereo not drawn), the “activity change, negative = cytotoxicity” value is inactive: 3.37%.
